# In PubChem BioAssay AID1345083 (National Center for Advancing Translational Sciences (NCATS), 2018):
# Hit rate of the full screen: of about 94,000 compounds, about 6,200 (6.6%) were called active. Inconclusive results, whose numbers are uncertain, are shown with a selection of clear calls. The call rests on the fitted dose curve; in most records, active means well fitted inhibition curve with a large enough effect; inconclusive means small, poorly fitted or top-dose-only effect; inactive means flat fitted curve, though single readings scatter. Potencies beside an inconclusive call are fits to weak or partial responses and may not hold up.
# Experiment: Cytotoxic Profiling in HEK 293 Cell Line of Diverse Libraries Using Quantitative High-Throughput Screening; further: nearly all actives have a fitted effect of over 60% in size
# Conditions: HEK 293 viability, ATP luminescence (CellTiter-Glo), 48-72 h; series mostly up to 115 µM
# How it was run: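 Viability of HEK 293 cells, plated at 250 cells/well, was judged by cellular ATP after compound treatment for 48 or 72 hr. Luminescence was imaged 10 min after CellTiter-Glo addition at room temperature.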
# Potency means the concentration at half of the fitted maximal effect; tags describe the fitted curve by direction and shape.
row,Structure (SMILES),Potency
1,O=C(NCc1ccc(Cl)cc1)c1cn2cc(-c3ccc(F)cc3)sc2n1,active: 28.2 µM
2,Cn1cc(CN2CCOc3cc([S+](=O)([O-])Nc4cccnc4)ccc3C2)cn1,inactive
3,COCC(=O)N1CC(C(=O)NC(C)c2ccccc2)CC(c2ccc(OC)c(OC)c2)C1 (configuration not stated),inactive
4,CCS(=O)(=O)N1CCc2c(c(CN3CCOCC3)nn2C)C1,inactive
5,CN(C)Cc1nnc(C2CCN(c3nnnn3-c3ccccc3)CC2)n1C,inactive
6,O=C(c1ccc(C(F)(F)F)cc1)N1CCC(C(=O)N2CCCC(c3nc4ncccc4[nH]3)C2)CC1 (configuration not stated),"inconclusive: 39.8 µM [inhibitor, full curve, poor fit]"
7,O=C(c1nc(-c2ccc(Cl)cc2)c2ccccn12)N1CCN(c2ncccn2)CC1,"inconclusive: 39.8 µM [inhibitor, partial curve, poor fit]"
8,COc1ccc(N2C(=O)CSC23CCN(C(=O)Nc2ccc(F)cc2F)CC3)cc1,inactive
9,Cc1ccoc1C(=O)N1C[C@@H](COCC2CC2)[C@H](c2ccccn2)C1,"inconclusive: 89.1 µM [inhibitor, single point]"
10,Cn1ncc2c(C(=O)NCc3cccc(Cl)c3)cc(-c3cccc(F)c3)nc21,"inconclusive: 50.1 µM [inhibitor, partial curve, poor fit]"
11,CNC(=O)[C@@H]1CN(C(=O)Cn2ccnc2C)C[C@H]1c1nc(COC)no1,inactive
12,CN(C)Cc1ccc(C2CCCN2Cc2cccc3nonc23)cc1 (configuration not stated),"inconclusive: 89.1 µM [inhibitor, partial curve, poor fit]"
13,CCOC(=O)C1=C(C)N=C2SC=C(CC(=O)NCc3ccco3)N2C1c1cccc(OC)c1OC (configuration not stated),"inconclusive: 50.1 µM [inhibitor, partial curve, poor fit]"
14,CN(Cc1ccc(F)cc1)C(=O)c1ccccc1Cl,"inconclusive: 112 µM [inhibitor, single point]"
15,COCCN1C(=O)CCc2cc(NC(=O)c3ccc(C)cc3C)ccc21,"inconclusive: 50.1 µM [inhibitor, partial curve, poor fit]"
16,Fc1ccc(-c2cnc3n2C[C@H](CNCc2ccc4c(c2)OCO4)OC3)cc1,active: 100 µM
17,COc1cccc(CNC(=O)c2ccc3nnc(-c4ccc(Cl)cc4)n3c2)c1,"inconclusive: 56.2 µM [inhibitor, partial curve, poor fit]"
18,COCCN1C(=O)c2cccn2CC1CNC(=O)c1cc(F)ccc1F (configuration not stated),inactive
19,O=C1CN(C(=O)c2ccnc(-c3nnc4ccc(Nc5ccccc5)nn34)c2)CCN1,"inconclusive: 126 µM [inhibitor, single point]"
20,O=C(c1nc2cccnc2n(Cc2ccccc2)c1=O)N1CCC(c2ccccc2)CC1,"inconclusive: 50.1 µM [inhibitor, partial curve, poor fit]"
21,COC(=O)c1ccc2nc(C[C@@H]3C[C@@H](C(C)C)[C@H](CNC(=O)CCCC(=O)O)C=C3C)[nH]c2c1,"inconclusive: 25.1 µM [inhibitor, full curve, poor fit]"

row,Structure (SMILES),Potency
1,COc1cccc(OC)c1C(=O)N1C(C(=O)NCc2cccc(F)c2)COC12CCCCC2 (configuration not stated),inactive
2,CCc1noc(-c2cn(C3CCN(C(=O)c4ccc(F)cc4Cl)C3)nn2)n1 (configuration not stated),"inconclusive: 79.4 µM [inhibitor, partial curve, poor fit]"
3,COc1ccc(CCNC(=O)c2cc[nH]c2C2CCCN(C(C)=O)C2)c(OC)c1 (configuration not stated),"inconclusive: 89.1 µM [inhibitor, single point]"
4,Cc1ccc(C(=O)NC2CCN(c3ccc4nnc(C5CC5)n4n3)C2)cc1 (configuration not stated),inactive
5,CCOC(=O)c1cccc(NC(=O)c2cnc(-c3ccc(C)cc3)nc2-c2ccncc2)c1,"inconclusive: 25.1 µM [inhibitor, full curve, poor fit]"
6,COc1ccc(-c2cc(N3CCCC(NC(=O)c4cc(OC)c(OC)c(OC)c4)C3)n[nH]2)cc1 (configuration not stated),"inconclusive: 89.1 µM [inhibitor, single point]"
7,COc1ccc(-c2ccccc2C(=O)NCCc2ccccc2)nn1,inactive
8,O=C1CCCCC(Cc2ccccc2)(C(=O)NCc2ccc(F)cc2)N1 (configuration not stated),"inconclusive: 70.8 µM [inhibitor, single point]"
9,O=C(c1ccco1)N1CCN(c2ncncc2-c2nc(-c3ccccc3)no2)CC1,"inconclusive: 35.5 µM [inhibitor, partial curve, poor fit]"
10,Cc1noc(C)c1[S+](=O)([O-])N1CCC(C(=O)N2CCC(N3CCCC3=O)CC2)CC1,inactive
11,Cc1ccccc1CNC(=O)CC1CCCN(c2cnn(CC3CC3)c(=O)c2)C1 (configuration not stated),"inconclusive: 79.4 µM [inhibitor, single point]"
12,O=C(Cc1ccccc1Cl)NC1CCN(c2cc(-c3ccccc3)[nH]n2)C1 (configuration not stated),"inconclusive: 11.2 µM [inhibitor, full curve]"
13,Cc1ccc(C2=NC3(CCN(C(=O)Cc4cccs4)CC3)ON2)cc1,inactive
14,Cc1ccc(-c2c(C(=O)NCc3ccccc3F)nc3sccn23)cc1,inactive
15,CC(C)(C)c1ccc(C(=O)Nc2ccc(C(O)[C@H]3COCC(=O)N3Cc3ccccc3)cc2)cc1 (some centres not stated),"inconclusive: 17.8 µM [inhibitor, full curve, poor fit]"
16,CN1c2cc(C(=O)N3CCN(c4ccccc4F)CC3)ccc2C(=O)N2CCCCC21 (configuration not stated),"inconclusive: 50.1 µM [inhibitor, partial curve, poor fit]"
17,O=C(c1ccco1)N1CCC(O)(c2ccccc2)[C@H](N2CCCC2)C1 (some centres not stated),"inconclusive: 89.1 µM [inhibitor, single point]"
18,CN(C)c1nccnc1OC1CCN(C(=O)c2ccnn2C)C1 (configuration not stated),inactive
19,O=C(C1CN(c2ccccc2)C(=O)N1)N1CCC(Cc2ccccc2)CC1 (configuration not stated),"inconclusive: 50.1 µM [inhibitor, partial curve, poor fit]"
20,O=C(Cn1cccc1-c1nc(-c2ccc3c(c2)OCO3)no1)Nc1ccccc1,"inconclusive: 89.1 µM [inhibitor, partial curve, poor fit]"
21,O=C(Nc1cccc(Cl)c1)C1CN(c2ccnc3ccnn23)C1,"inconclusive: 17.8 µM [inhibitor, full curve, poor fit]"
